Assay results reported in patent US11420968B2 (priority 2018, dated 2022).
Read-outs that look alike come from different tables or passages of the source.

Tests used:
[1] = tested on: RS4;11 cells; experiment: cells; conditions: Homo sapiens
[2] = tested on: Molt-4 cells; experiment: cells; conditions: Homo sapiens
[3] = RS4-11, 48 h, read-out: Cellular activity (IC50, nM) RS4, 11
[4] = MOLT-4, read-out: Cellular activity (IC50, nM) Molt-4
[5] = RS4-11, 48 h, read-out: Cellular activity (IC50, nM) RS4;11

| Compound | IC50 [1, 3] [nM] | IC50 [2, 4] [nM] | IC50 [1, 5] [nM] | IC50 ([1]; RS4-11, read-out: Celluclar activity (IC50, nM) RS 4, 11) [nM] | IC50 ([2]; MOLT-4, read-out: Celluclar activity (IC50, nM) Molt-4) [nM] |
| --- | --- | --- | --- | --- | --- |
| O=C(NS(=O)(=O)c1ccc(NCC2CCOCC2)c([N+](=O)[O-])c1)c1ccc(N2CC3(CCC(N4CCC[C@H]4c4ccccc4C4CC4)CC3)C2)cc1Oc1cnc2[nH]ccc2c1 [Example F30, (S)-2-((1H-pyrrolo[2,3-b]pyridin-5-yl)oxy)-4-(7-(2-(2-cyclopropylphenyl)pyrrolidin-1-yl)-2-azaspiro[3.5]nonan-2-yl)-N-((3-nitro-4-(((tetrahydro-2H-pyran-4-yl)methyl)amino)phenyl)sulfonyl)benzamide] | 290 | > 10000 |  |  |  |
| CN(C)c1c(Cl)cccc1C1CCCN1C1CC2(CCN(c3ccc(C(=O)NS(=O)(=O)c4ccc(NCC5CCOCC5)c([N+](=O)[O-])c4)c(Oc4cnc5[nH]ccc5c4)c3)CC2)C1 (stereo not shown) [Example F36, 2-((1H-pyrrolo[2,3-b]pyridin-5-yl)oxy)-4-(2-(2-(3-chloro-2-(dimethylamino)phenyl)pyrrolidin-1-yl)-7-azaspiro[3.5]nonan-7-yl)-N-((3-nitro-4-(((tetrahydro-2H-pyran-4-yl)methyl)amino)phenyl)sulfonyl)benzamide] | 31 | 6090 | 31 |  |  |
| O=C(NS(=O)(=O)c1ccc(NCC2(F)CCOCC2)c([N+](=O)[O-])c1)c1ccc(N2CCC3(CC2)CC(N2CCC[C@H]2c2ccccc2C2CC2)C3)cc1Oc1cnc2[nH]ccc2c1 [Example F22, (S)-2-((1H-pyrrolo[2,3-b]pyridin-5-yl)oxy)-4-(2-(2-(2-cyclopropylphenyl)pyrrolidin-1-yl)-7-azaspiro[3.5]nonan-7-yl)-N-((4-(((4-fluorotetrahydro-2H-pyran-4-yl)methyl)amino)-3-nitrophenyl)sulfonyl)benzamide] |  | 2820 | 1.3 | 1.3 | 2820 |
| C[C@]1(O)CC[C@H](CNc2ccc(S(=O)(=O)NC(=O)c3ccc(N4CCC5(CC(N6CCC[C@H]6c6ccccc6C6CC6)C5)C4)cc3Oc3cnc4[nH]ccc4c3)cc2[N+](=O)[O-])CC1 (stereo partly drawn) [Example F122, 2-((1H-pyrrolo[2,3-b]pyridin-5-yl)oxy)-4-(2-((S)-2-(2-cyclopropylphenyl)pyrrolidin-1-yl)-6-azaspiro[3.4]octan-6-yl)-N-((4-((((1r,4r)-4-hydroxy-4-methylcyclohexyl)methyl)amino)-3-nitrophenyl)sulfonyl)benzamide] |  | > 10000 | 57 |  |  |
| O=C(NS(=O)(=O)c1ccc(NCCC2CCOCC2)c([N+](=O)[O-])c1)c1ccc(N2CCC3(CC2)CC(N2CCC[C@H]2c2ccccc2C2CC2)C3)cc1Oc1cnc2[nH]ccc2c1 [Example F116, (S)-2-((1H-pyrrolo[2,3-b]pyridin-5-yl)oxy)-4-(2-(2-(2-cyclopropylphenyl)pyrrolidin-1-yl)-7-azaspiro[3.5]nonan-7-yl)-N-((3-nitro-4-((2-(tetrahydro-2H-pyran-4-yl)ethyl)amino)phenyl)sulfonyl)benzamide] |  | 4710 | 5.4 |  |  |
| CCc1ccccc1[C@H]1CCCN1c1ccc(-c2ccc(C(=O)NS(=O)(=O)c3ccc(OCC4(F)CCN(C5COC5)CC4)c([N+](=O)[O-])c3)c(Oc3cnc4[nH]ccc4c3)c2)cc1 [Example G104, (R)-3-((1H-pyrrolo[2,3-b]pyridin-5-yl)oxy)-4′-(2-(2-ethylphenyl)pyrrolidin-1-yl)-N-((4-((4-fluoro-1-(oxetan-3-yl)piperidin-4-yl)methoxy)-3-nitrophenyl)sulfonyl)-[1,1′-biphenyl]-4-carboxamide] | 11 | 1310 |  |  |  |
| O=C(NS(=O)(=O)c1ccc(NCC2CCOCC2)c([N+](=O)[O-])c1)c1ccc(-c2ccc(N3C(=O)CC3c3ccccc3)cc2)cc1Oc1cnc2[nH]ccc2c1 (stereo not shown) [Example A21, 3-((1H-pyrrolo[2,3-b]pyridin-5-yl)oxy)-N-((3-nitro-4-(((tetrahydro-2H-pyran-4-yl)methyl)amino)phenyl)sulfonyl)-4′-(2-oxo-4-phenylazetidin-1-yl)-[1,1′-biphenyl]-4-carboxamide] | 6230 | > 10000 |  |  |  |
| O=C(NS(=O)(=O)c1ccc(NC[C@@H]2CN(C3COC3)CCO2)c([N+](=O)[O-])c1)c1ccc(C2=CCC(N3CCCC3c3ccccc3C3CC3)CC2)cc1Oc1cnc2[nH]ccc2c1 (stereo partly drawn) [Example G112, 3-((1H-pyrrolo[2,3-b]pyridin-5-yl)oxy)-4′-((S)-2-(2-cyclopropylphenyl)pyrrolidin-1-yl)-N-((3-nitro-4-((((R)-4-(oxetan-3-yl)morpholin-2-yl)methyl)amino)phenyl)sulfonyl)-2′,3′,4′,5′-tetrahydro-[1,1′-biphenyl]-4-carboxamide] | 12 | 4280 |  |  |  |
| O=C(NS(=O)(=O)c1ccc(NCC2CCOCC2)c([N+](=O)[O-])c1)c1ccc(C2=CCC(N3CCCC3c3ccccc3OC3CC3)CC2)cc1Oc1cnc2[nH]ccc2c1 (stereo not shown) [Example C42, 3-((1H-pyrrolo[2,3-b]pyridin-5-yl)oxy)-4′-(2-(2-cyclopropoxyphenyl)pyrrolidin-1-yl)-N-((3-nitro-4-(((tetrahydro-2H-pyran-4-yl)methyl)amino)phenyl)sulfonyl)-2′,3′,4′,5′-tetrahydro-[1,1′-biphenyl]-4-carboxamide] | 226 | > 10000 |  |  |  |
| CNCC(=O)N1CCC(c2ccccc2[C@H]2CCCN2c2ccc(-c3ccc(C(=O)NS(=O)(=O)c4ccc(NC[C@H]5CC[C@](C)(O)CC5)c([N+](=O)[O-])c4)c(Oc4cnc5[nH]ccc5c4)c3)cc2)CC1 [Example G125, 3-((1H-pyrrolo[2,3-b]pyridin-5-yl)oxy)-N-((4-((((1r,4r)-4-hydroxy-4-methylcyclohexyl)methyl)amino)-3-nitrophenyl)sulfonyl)-4′-((R)-2-(2-(1-(methylglycyl)piperidin-4-yl)phenyl)pyrrolidin-1-yl)-[1,1′-biphenyl]-4-carboxamide] |  | > 10000 | 33 |  |  |
| O=C(NS(=O)(=O)c1ccc(NCC2CCOCC2)c([N+](=O)[O-])c1)c1ccc(N2CCC3(CC2)CC(N2CCCC2c2cccc(Cl)c2C2CC2)C3)cc1Oc1cnc2[nH]ccc2c1 (single isomer, unassigned) [Example F72a, (R or S)-2-((1H-pyrrolo[2,3-b]pyridin-5-yl)oxy)-4-(2-(2-(3-chloro-2-cyclopropylphenyl)pyrrolidin-1-yl)-7-azaspiro[3.5]nonan-7-yl)-N-((3-nitro-4-(((tetrahydro-2H-pyran-4-yl)methyl)amino)phenyl)sulfonyl)benzamide] |  | 7890 | 25 |  |  |
| O=C(NS(=O)(=O)c1ccc(NCC2(F)CCN(C3COC3)CC2)c([N+](=O)[O-])c1)c1ccc(C2=CCC(N3CCC[C@H]3c3ccccc3C3CC3)CC2)cc1Oc1cnc2[nH]ccc2c1 (stereo partly drawn) [Example G114, 3-((1H-pyrrolo[2,3-b]pyridin-5-yl)oxy)-4′-((S)-2-(2-cyclopropylphenyl)pyrrolidin-1-yl)-N-((4-(((4-fluoro-1-(oxetan-3-yl)piperidin-4-yl)methyl)amino)-3-nitrophenyl)sulfonyl)-2′,3′,4′,5′-tetrahydro-[1,1′-biphenyl]-4-carboxamide] | 18 | 5970 |  |  |  |
| O=C(NS(=O)(=O)c1ccc(OCC2(F)CCN(C3CCOCC3)CC2)c([N+](=O)[O-])c1)c1ccc(C2=CCC(N3CCCC3c3ccccc3C3CC3)CC2)cc1Oc1cnc2[nH]ccc2c1 (stereo not shown) [Example G36, 3-((1H-pyrrolo[2,3-b]pyridin-5-yl)oxy)-4′-(2-(2-cyclopropylphenyl)pyrrolidin-1-yl)-N-((4-((4-fluoro-1-(tetrahydro-2H-pyran-4-yl)piperidin-4-yl)methoxy)-3-nitrophenyl)sulfonyl)-2′,3′,4′,5′-tetrahydro-[1,1′-biphenyl]-4-carboxamide] | 41 | 474 |  |  |  |
| C[C@]1(O)CC[C@H](CNc2ccc(S(=O)(=O)NC(=O)c3ccc(C4=CCC(N5CCCC5c5cccc(Cl)c5C5CC5)CC4)cc3Oc3cnc4[nH]ccc4c3)cc2[N+](=O)[O-])CC1 (stereo partly shown) [Example G106, 3-((1H-pyrrolo[2,3-b]pyridin-5-yl)oxy)-4′-(2-(3-chloro-2-cyclopropylphenyl)pyrrolidin-1-yl)-N-((4-((((1r,4r)-4-hydroxy-4-methylcyclohexyl)methyl)amino)-3-nitrophenyl)sulfonyl)-2′,3′,4′,5′-tetrahydro-[1,1′-biphenyl]-4-carboxamide] | 15 | 3170 |  |  |  |
| CN(C)C1CCN(c2ccccc2C2CCCN2c2ccc(-c3ccc(C(=O)NS(=O)(=O)c4ccc(NCC5CCOCC5)c([N+](=O)[O-])c4)c(Oc4cnc5[nH]ccc5c4)c3)cc2)CC1 (stereo not shown) [Example A125, 3-((1H-pyrrolo[2,3-b]pyridin-5-yl)oxy)-4′-(2-(2-(4-(dimethylamino)piperidin-1-yl)phenyl)pyrrolidin-1-yl)-N-((3-nitro-4-(((tetrahydro-2H-pyran-4-yl)methyl)amino)phenyl)sulfonyl)-[1,1′-biphenyl]-4-carboxamide] |  | 489 | 4.5 |  |  |
| CCCc1ccccc1[C@@H]1CCCN1C1CC2(CCN(c3ccc(C(=O)NS(=O)(=O)c4ccc(NC[C@H]5CC[C@](C)(O)CC5)c([N+](=O)[O-])c4)c(Oc4cnc5[nH]ccc5c4)c3)CC2)C1 [Example F105, 2-((1H-pyrrolo[2,3-b]pyridin-5-yl)oxy)-N-((4-((((1r,4r)-4-hydroxy-4-methylcyclohexyl)methyl)amino)-3-nitrophenyl)sulfonyl)-4-(2-((S)-2-(2-propylphenyl)pyrrolidin-1-yl)-7-azaspiro[3.5]nonan-7-yl)benzamide] |  | 7700 | 11 |  |  |
| CC(=O)N1CC=C(c2ccccc2[C@H]2CCCN2c2ccc(-c3ccc(C(=O)NS(=O)(=O)c4ccc(NCC5CCOCC5)c([N+](=O)[O-])c4)c(Oc4cnc5[nH]ccc5c4)c3)cc2)CC1 [Example A109, (R)-3-((1H-pyrrolo[2,3-b]pyridin-5-yl)oxy)-4′-(2-(2-(1-acetyl-1,2,3,6-tetrahydropyridin-4-yl)phenyl)pyrrolidin-1-yl)-N-((3-nitro-4-(((tetrahydro-2H-pyran-4-yl)methyl)amino)phenyl)sulfonyl)-[1,1′-biphenyl]-4-carboxamide] |  | 1320 | 2.7 |  |  |
